Out of some 310,000 compounds screened, about 2,200 (0.71%) showed an effect of 50% or more. Effects have a minus sign here. The list shows a part of the results.
The compounds below were run against human ether-à-go-go-related gene (hERG) potassium channel (human, UniProt Q12809) (assay: primary screen, population patch clamp on CHO cells stably expressing hERG).
Sequence of human ether-à-go-go-related gene (hERG) potassium channel (Q12809 whole entry, looked up): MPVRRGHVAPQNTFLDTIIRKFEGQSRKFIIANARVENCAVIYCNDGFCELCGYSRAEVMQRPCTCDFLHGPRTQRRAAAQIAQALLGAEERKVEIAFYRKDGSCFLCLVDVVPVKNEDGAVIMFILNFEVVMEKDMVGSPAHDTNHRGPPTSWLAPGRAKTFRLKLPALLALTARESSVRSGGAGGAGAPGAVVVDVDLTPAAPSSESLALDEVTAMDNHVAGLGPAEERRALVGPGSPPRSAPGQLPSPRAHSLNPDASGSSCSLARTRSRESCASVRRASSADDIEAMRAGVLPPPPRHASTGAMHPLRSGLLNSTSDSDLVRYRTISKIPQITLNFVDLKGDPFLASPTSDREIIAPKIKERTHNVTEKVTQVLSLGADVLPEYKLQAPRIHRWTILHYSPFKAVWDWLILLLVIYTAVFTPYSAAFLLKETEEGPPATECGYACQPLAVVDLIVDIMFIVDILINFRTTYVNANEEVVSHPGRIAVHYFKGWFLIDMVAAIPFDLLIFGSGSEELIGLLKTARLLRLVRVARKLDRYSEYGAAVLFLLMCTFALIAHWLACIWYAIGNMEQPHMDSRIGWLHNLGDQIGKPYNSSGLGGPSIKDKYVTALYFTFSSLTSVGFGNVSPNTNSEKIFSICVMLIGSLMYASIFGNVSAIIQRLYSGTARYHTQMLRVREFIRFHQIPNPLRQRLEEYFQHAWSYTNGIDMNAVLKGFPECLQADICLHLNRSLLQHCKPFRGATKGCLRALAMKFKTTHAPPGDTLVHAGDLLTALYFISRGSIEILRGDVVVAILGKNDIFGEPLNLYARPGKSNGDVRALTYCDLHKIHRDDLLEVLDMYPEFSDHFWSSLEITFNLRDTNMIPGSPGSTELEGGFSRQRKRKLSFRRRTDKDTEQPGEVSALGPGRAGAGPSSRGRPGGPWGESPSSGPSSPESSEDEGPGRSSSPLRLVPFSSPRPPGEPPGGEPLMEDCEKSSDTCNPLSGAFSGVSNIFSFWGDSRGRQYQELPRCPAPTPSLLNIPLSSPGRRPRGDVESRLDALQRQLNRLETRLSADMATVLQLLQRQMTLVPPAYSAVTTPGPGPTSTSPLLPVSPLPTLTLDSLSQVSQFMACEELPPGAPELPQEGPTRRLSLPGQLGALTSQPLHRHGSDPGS

Row | SMILES | hERG current change (%, negative = inhibition) at 1uM [%]
1 | COc1cc(CNc2nnnn2C)cc(OC)c1OC | 11.3
2 | CN1CCN(C(=O)C2=C[C@@H](c3ccc(Br)cc3)C[C@@H](OCc3ccc(CO)cc3)O2)CC1 | -4.96
3 | O=C(O)c1cc(Cl)c(Cl)cc1C(=O)N1CCOCC1 | 17.7
4 | O=C(N/N=C/C=C/c1ccco1)c1ccncc1 | 7.59
5 | CCCN(C(=O)c1cc(C)ccc1C)c1c(N)n(Cc2ccccc2)c(=O)[nH]c1=O | 20.5
6 | COc1ccc(OC)c(NC(=O)CCS(=O)(=O)c2cc3c(cc2C)NC(=O)CO3)c1 | 9.96
7 | O=c1[nH]c(=O)n([C@H]2C[C@H](O)[C@@H](CO)O2)cc1Br | 8.21
8 | Cc1ccc(NC(=O)CN(C)Cc2ccc(Cl)cc2)cc1 | 21.3
9 | O=C(NCCc1nc2ccccc2[nH]1)/C(=C/c1ccco1)NC(=O)c1ccc(Br)cc1 | -34.7
10 | CCOc1ccc(N2CC(C(=O)Nc3cccc(C(=O)NC4CC4)c3)CC2=O)cc1 (centres unmarked) | 6.94
11 | Cc1ccc(/C=C/C(=O)N2CCc3ccccc32)o1 | 10.6
12 | c1ccc(C2OC3c4cccc5cccc(c45)C3N2c2ccccc2)cc1 (centres unmarked) | 19.9
13 | O=C(NNC(=O)c1ccc(NC(=O)c2ccccc2)cc1)Nc1ccccc1 | 13.2
14 | O=C(Cc1ccc(Cl)cc1Cl)NCC1(N2CCOCC2)CCCCC1 | 3
15 | CCn1cc(C(=O)NCCCN2CCC(C)CC2)c(=O)c2cc(S(=O)(=O)N3CCOCC3)ccc21 | 7.12
16 | CCCN1CCN(C(=O)CS(=O)(=O)Cc2nc(-c3cccc(OC)c3)oc2C)CC1 | 1.3
17 | O=C(CSc1nc2nccnc2c(=O)n1Cc1cccs1)Nc1ccccc1 | -6.86
18 | S=C(NC1CCCCC1)c1ccc2c(c1)OCO2 | 3.61
19 | Cc1ccc(S(=O)(=O)N(C)C)cc1NC(=O)C(C)[N+]12CCN(CC1)CC2.[Cl-] (centres unmarked) | 23.4

Row | SMILES | hERG current change (%, negative = inhibition) at 1uM [%]
20 | COc1ccc(C(C(=O)NC2CCCC2)N(C(=O)c2snc(C(N)=O)c2N)C2CCCC2)cc1OC (centres unmarked) | 13.4
21 | CCS(=O)(=O)N1CCC(C(=O)NCCCN2CCN(c3ccccc3F)CC2)CC1 | -1.04
22 | COCCCN1C(=O)C(=O)/C(=C(/O)c2ccc(OC)cc2)C1c1cccc(OC)c1 (centres unmarked) | 3.46
23 | Cc1cccc(NC(=O)C2CC(=O)n3cnnc3S2)c1 (centres unmarked) | 2.3
24 | O=C(CCC(=O)OCC(=O)c1ccccc1)NC1CCCCC1 | 13.5
25 | Cc1ccc(-n2c(C)cc(C(=O)NS(=O)(=O)c3ccc(C)cc3)c2C)cc1 | -4.4
26 | CC(C)OC(=O)CCCN1C(=O)c2ccc(N)cc2C1=O | 11.9
27 | O=C(Cc1ccccc1)Nc1cc(C(=O)c2ccccc2)ccc1N1CCOCC1 | -5.53
28 | CCOC(=O)C1CCN(C(=O)CSc2nc3ncccc3[nH]2)CC1 | 12
29 | CSCCC1NC2(C(=O)Nc3c2ccc(Cl)c3C)[C@@H]2C(=O)N(C3CCCC3)C(=O)[C@H]12 (some centres unmarked) | 3.44
30 | COc1ccc(CNC(=O)Nc2cccs2)cc1OC | 7.79
31 | c1ccc(CSc2ncnc3c2cnn3-c2ccccc2)cc1 | -1.56
32 | OCCOc1ccc(C2=NCCO2)cc1 | -25.3
33 | Cc1nc2c3ccccc3n(CC#N)c(=O)n2n1 | 8.95
34 | CCOC(=O)C(CSCC(=O)c1ccc(Cl)cc1Cl)NC(=O)OC(C)(C)C (centres unmarked) | 1.49
35 | COc1ccc(-n2c(SCc3nnc(-c4ccccc4)o3)nnc2-c2ccccc2)cc1 | 5.1
36 | Cc1ccc(NC(=O)Cn2c(O)c(N=NC(=O)c3ccncc3)c3ccccc32)cc1 | 12.7
37 | OCC1(Cc2ccccc2)CCN(Cc2ccccn2)CC1 | 4.6
38 | Cc1ccnc(NC(=O)c2cc(-n3cnnc3)ccc2Cl)c1 | 14.2

Row | SMILES | hERG current change (%, negative = inhibition) at 1uM [%]
39 | CN(C)C(=O)Cn1c(SCC(=O)Nc2ccc3c(c2)OCO3)nc2ccccc21 | 14
40 | Cc1cccc(NC2=C(NC(=O)c3ccccc3)C(=O)c3ccccc3C2=O)c1 | 5.94
41 | COc1cccc([C@@H]2Oc3ccc(OC)cc3C(=O)[C@H]2O)c1 | 17.4
42 | CC1=CC(=O)C(C(C)C)=C/C1=N/OC(=O)c1cccc([N+](=O)[O-])c1 | 7.17
43 | Cc1oc(-c2cccc(F)c2)nc1CN1CCCCC1CCn1cccn1 (centres unmarked) | -40.1
44 | CC1CCCC(NC(=O)c2nn(C)c3c2CS(=O)(=O)c2ccccc2-3)C1C (centres unmarked) | 8.09
45 | On1c(-c2ccccc2)nc2ccccc21 | 16.2
46 | O=C1/C(=C\c2ccco2)SC(=S)N1C1CCCCC1 | 12.8
47 | CC(C)NC(=O)/C(C#N)=C\c1ccc(N(C)C)c(Br)c1 | 12.7
48 | COc1ccc(CN2CN(S(=O)(=O)c3cccs3)c3nc4ccccc4nc32)cc1 | 9.17
49 | Cc1c(NC(=O)COC(=O)C23CC4CC(CC(Br)(C4)C2)C3)c(=O)n(-c2ccccc2)n1C | 11.3
50 | O=C(c1ccc(Cl)cc1Cl)c1ncc(C(F)(F)F)cc1Cl | 3.15
51 | CCN(C(=O)COC(=O)c1ccc(F)c(S(=O)(=O)N2CCOCC2)c1)C1CCS(=O)(=O)C1 (centres unmarked) | -6.02
52 | Cc1cccc(-c2n[nH]c(=S)n2/N=C/c2ccc(C)o2)c1 | 10.5
53 | O=C(O)C1C(c2ccccc2)C(C(=O)N2CCOCC2)C1c1ccccc1 (centres unmarked) | -8.5
54 | O=C(COc1ccccc1Cl)Nc1ccccc1C(=O)Nc1cccc(C(=O)O)c1 | 19.2
55 | O=C(OCc1cccnc1)C1=Cc2ccccc2OC1 | -73
56 | CNc1ccc(S(=O)(=O)NC)cc1[N+](=O)[O-] | 14.8

— PMC4336329 (PLoS ONE, 2015)
